Reference: publication PMC4302535
Results are given in words; binding and its absence hold for the method and conditions named. In cells and extracts the contact can be indirect. Some results given as binding are weak or reduced against the parent protein; the word gives no strength. For some assays here: Where a sequence is shown, tags or fusion partners need not be part of it.

By UniProt entry, the sequences of proteins in these tests, tags left out.
UniProt P04147: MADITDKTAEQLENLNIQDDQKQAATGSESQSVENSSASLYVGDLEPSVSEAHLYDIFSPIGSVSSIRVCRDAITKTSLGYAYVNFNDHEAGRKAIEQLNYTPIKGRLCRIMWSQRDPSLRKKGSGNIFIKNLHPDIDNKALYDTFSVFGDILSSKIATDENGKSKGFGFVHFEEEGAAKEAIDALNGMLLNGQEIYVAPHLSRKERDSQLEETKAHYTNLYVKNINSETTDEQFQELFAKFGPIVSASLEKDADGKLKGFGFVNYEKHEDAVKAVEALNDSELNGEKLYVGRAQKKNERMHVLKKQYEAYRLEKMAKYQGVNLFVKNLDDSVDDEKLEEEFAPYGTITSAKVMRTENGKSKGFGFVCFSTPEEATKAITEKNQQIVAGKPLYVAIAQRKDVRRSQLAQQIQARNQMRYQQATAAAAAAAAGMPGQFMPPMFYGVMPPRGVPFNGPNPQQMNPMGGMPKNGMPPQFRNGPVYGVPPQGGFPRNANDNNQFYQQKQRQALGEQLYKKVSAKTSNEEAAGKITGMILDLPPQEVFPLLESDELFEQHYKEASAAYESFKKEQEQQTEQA

T1: eIF4E-TAP (S. cerevisiae) (UniProt P07260)
T1 sequence: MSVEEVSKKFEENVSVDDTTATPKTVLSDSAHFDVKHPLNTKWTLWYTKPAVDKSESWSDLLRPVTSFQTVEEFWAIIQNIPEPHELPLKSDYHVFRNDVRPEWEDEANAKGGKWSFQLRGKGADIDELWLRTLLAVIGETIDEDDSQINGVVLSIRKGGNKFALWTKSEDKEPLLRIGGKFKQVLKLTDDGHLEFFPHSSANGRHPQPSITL

T2: eIF4G2-TAP (S. cerevisiae) (UniProt P39936)
T2 sequence: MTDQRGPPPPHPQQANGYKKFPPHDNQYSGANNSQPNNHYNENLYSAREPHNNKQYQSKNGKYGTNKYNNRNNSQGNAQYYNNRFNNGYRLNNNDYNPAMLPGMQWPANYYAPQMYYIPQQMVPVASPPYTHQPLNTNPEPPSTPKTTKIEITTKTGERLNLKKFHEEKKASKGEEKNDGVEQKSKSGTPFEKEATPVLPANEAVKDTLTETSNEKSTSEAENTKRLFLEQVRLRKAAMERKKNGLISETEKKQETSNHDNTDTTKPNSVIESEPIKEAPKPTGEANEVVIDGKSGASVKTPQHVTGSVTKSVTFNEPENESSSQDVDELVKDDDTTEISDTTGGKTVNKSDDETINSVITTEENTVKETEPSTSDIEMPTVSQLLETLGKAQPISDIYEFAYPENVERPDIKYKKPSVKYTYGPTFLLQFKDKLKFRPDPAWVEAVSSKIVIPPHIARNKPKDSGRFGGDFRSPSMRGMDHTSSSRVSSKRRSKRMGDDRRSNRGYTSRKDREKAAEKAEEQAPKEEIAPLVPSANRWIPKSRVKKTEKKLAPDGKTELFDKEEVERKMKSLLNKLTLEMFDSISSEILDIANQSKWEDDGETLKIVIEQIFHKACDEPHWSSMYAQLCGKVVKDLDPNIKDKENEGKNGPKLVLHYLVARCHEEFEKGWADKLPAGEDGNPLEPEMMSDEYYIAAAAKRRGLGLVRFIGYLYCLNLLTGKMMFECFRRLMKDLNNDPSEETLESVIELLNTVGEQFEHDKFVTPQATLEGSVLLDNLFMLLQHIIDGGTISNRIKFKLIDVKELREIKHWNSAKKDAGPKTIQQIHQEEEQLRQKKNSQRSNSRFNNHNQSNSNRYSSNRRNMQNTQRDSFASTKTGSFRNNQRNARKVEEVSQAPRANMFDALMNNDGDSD

T3: Caf20p-TAP (S. cerevisiae) (UniProt P12962)
T3 sequence: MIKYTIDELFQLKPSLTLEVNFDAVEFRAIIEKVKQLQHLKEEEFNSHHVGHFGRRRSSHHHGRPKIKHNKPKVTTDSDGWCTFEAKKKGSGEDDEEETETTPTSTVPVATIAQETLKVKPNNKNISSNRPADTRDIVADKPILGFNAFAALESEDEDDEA

T4: eIF4G1-TAP (S. cerevisiae) (UniProt P39935)
T4 sequence: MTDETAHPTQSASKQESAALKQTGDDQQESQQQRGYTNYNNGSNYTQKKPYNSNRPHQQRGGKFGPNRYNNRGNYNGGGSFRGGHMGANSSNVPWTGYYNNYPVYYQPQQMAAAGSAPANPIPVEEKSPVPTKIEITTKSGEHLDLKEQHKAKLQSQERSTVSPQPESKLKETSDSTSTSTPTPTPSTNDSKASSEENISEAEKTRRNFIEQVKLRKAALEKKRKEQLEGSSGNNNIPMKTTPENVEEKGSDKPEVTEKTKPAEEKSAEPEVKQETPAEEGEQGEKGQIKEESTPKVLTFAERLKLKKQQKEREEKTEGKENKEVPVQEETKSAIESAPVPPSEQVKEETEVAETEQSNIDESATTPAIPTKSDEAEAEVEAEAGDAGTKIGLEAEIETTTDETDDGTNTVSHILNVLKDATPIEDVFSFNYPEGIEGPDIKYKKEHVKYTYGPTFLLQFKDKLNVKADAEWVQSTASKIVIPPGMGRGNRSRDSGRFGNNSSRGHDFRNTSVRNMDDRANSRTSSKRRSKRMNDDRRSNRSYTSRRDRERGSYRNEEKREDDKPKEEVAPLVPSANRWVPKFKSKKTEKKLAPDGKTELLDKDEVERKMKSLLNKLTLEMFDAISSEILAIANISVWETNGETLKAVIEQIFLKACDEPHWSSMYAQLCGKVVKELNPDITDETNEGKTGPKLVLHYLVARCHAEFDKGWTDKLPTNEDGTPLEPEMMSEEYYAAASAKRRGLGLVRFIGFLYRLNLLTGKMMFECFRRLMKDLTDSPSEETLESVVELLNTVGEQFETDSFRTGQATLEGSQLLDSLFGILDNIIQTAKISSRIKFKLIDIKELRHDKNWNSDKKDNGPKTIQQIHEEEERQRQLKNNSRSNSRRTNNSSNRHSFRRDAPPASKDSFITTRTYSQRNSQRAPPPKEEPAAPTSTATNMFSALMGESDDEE

T5: Eap1p-TAP (S. cerevisiae) (UniProt P36041)
T5 sequence: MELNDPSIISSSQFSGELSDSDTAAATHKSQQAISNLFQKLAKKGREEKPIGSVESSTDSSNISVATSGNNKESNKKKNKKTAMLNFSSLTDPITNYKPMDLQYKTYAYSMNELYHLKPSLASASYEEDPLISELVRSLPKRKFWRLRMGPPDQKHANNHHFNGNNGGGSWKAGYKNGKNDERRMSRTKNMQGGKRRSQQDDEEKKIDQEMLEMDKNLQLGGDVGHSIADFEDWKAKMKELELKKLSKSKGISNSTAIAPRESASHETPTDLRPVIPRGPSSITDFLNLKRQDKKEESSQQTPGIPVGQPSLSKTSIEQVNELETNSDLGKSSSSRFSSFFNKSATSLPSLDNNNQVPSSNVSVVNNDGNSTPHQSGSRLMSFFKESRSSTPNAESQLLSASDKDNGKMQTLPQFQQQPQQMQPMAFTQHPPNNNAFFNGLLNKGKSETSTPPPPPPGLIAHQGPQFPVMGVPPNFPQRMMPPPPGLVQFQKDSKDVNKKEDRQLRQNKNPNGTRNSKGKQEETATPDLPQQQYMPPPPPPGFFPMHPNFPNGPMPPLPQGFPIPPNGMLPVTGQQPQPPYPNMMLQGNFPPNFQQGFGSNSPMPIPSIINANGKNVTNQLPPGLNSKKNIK


How the values were obtained:
Assay in all cases: co-IP; TAP-tagged bait captured from yeast whole-cell lysate on rabbit IgG coupled to Tosyl-activated Dynabeads M-280; Buffer A (20 mM Tris-HCl pH 8, 140 mM NaCl, 1 mM MgCl2, 0.5% NP40, 0.5 mM DTT, with RNasin); eluates probed on western blots
[1] = target: T1, eIF4E-TAP (S. cerevisiae)
[2] = target: T2, eIF4G2-TAP (S. cerevisiae)
[3] = target: T3, Caf20p-TAP (S. cerevisiae)
[4] = target: T4, eIF4G1-TAP (S. cerevisiae)
[5] = target: Pab1p-TAP (S. cerevisiae) (UniProt P04147)
[6] = target: T5, Eap1p-TAP (S. cerevisiae)

| Molecule | binding [1] | binding [2] | binding [3] | binding [4] | binding [5] | binding [6] |
| --- | --- | --- | --- | --- | --- | --- |
| Pab1p (from UniProt P04147 1-577) | binds | binds |  |  |  |  |
| eIF4E (protein, UniProt P07260 1-213) MSVEEVSKKFEENVSVDDTTATPKTVLSDSAHFDVKHPLNTKWTLWYTKPAVDKSESWSDLLRPVTSFQTVEEFWAIIQNIPEPHELPLKSDYHVFRNDVRPEWEDEANAKGGKWSFQLRGKGADIDELWLRTLLAVIGETIDEDDSQINGVVLSIRKGGNKFALWTKSEDKEPLLRIGGKFKQVLKLTDDGHLEFFPHSSANGRHPQPSITL |  | binds | binds | binds | binds |  |
| Flag-tagged Caf20p (protein, UniProt P12962 1-161) MIKYTIDELFQLKPSLTLEVNFDAVEFRAIIEKVKQLQHLKEEEFNSHHVGHFGRRRSSHHHGRPKIKHNKPKVTTDSDGWCTFEAKKKGSGEDDEEETETTPTSTVPVATIAQETLKVKPNNKNISSNRPADTRDIVADKPILGFNAFAALESEDEDDEA | binds |  |  |  |  |  |

The remaining lines, values ahead:

| binding [1] | binding [2] | binding [3] | binding [4] | binding [5] | binding [6] | Molecule |
| --- | --- | --- | --- | --- | --- | --- |
| binds |  | no binding |  |  | no binding | eIF4G1 (protein, UniProt P39935 1-952) MTDETAHPTQSASKQESAALKQTGDDQQESQQQRGYTNYNNGSNYTQKKPYNSNRPHQQRGGKFGPNRYNNRGNYNGGGSFRGGHMGANSSNVPWTGYYNNYPVYYQPQQMAAAGSAPANPIPVEEKSPVPTKIEITTKSGEHLDLKEQHKAKLQSQERSTVSPQPESKLKETSDSTSTSTPTPTPSTNDSKASSEENISEAEKTRRNFIEQVKLRKAALEKKRKEQLEGSSGNNNIPMKTTPENVEEKGSDKPEVTEKTKPAEEKSAEPEVKQETPAEEGEQGEKGQIKEESTPKVLTFAERLKLKKQQKEREEKTEGKENKEVPVQEETKSAIESAPVPPSEQVKEETEVAETEQSNIDESATTPAIPTKSDEAEAEVEAEAGDAGTKIGLEAEIETTTDETDDGTNTVSHILNVLKDATPIEDVFSFNYPEGIEGPDIKYKKEHVKYTYGPTFLLQFKDKLNVKADAEWVQSTASKIVIPPGMGRGNRSRDSGRFGNNSSRGHDFRNTSVRNMDDRANSRTSSKRRSKRMNDDRRSNRSYTSRRDRERGSYRNEEKREDDKPKEEVAPLVPSANRWVPKFKSKKTEKKLAPDGKTELLDKDEVERKMKSLLNKLTLEMFDAISSEILAIANISVWETNGETLKAVIEQIFLKACDEPHWSSMYAQLCGKVVKELNPDITDETNEGKTGPKLVLHYLVARCHAEFDKGWTDKLPTNEDGTPLEPEMMSEEYYAAASAKRRGLGLVRFIGFLYRLNLLTGKMMFECFRRLMKDLTDSPSEETLESVVELLNTVGEQFETDSFRTGQATLEGSQLLDSLFGILDNIIQTAKISSRIKFKLIDIKELRHDKNWNSDKKDNGPKTIQQIHEEEERQRQLKNNSRSNSRRTNNSSNRHSFRRDAPPASKDSFITTRTYSQRNSQRAPPPKEEPAAPTSTATNMFSALMGESDDEE |
| binds |  |  |  |  |  | endogenous Caf20p (protein, UniProt P12962 1-161) MIKYTIDELFQLKPSLTLEVNFDAVEFRAIIEKVKQLQHLKEEEFNSHHVGHFGRRRSSHHHGRPKIKHNKPKVTTDSDGWCTFEAKKKGSGEDDEEETETTPTSTVPVATIAQETLKVKPNNKNISSNRPADTRDIVADKPILGFNAFAALESEDEDDEA |
